90 compounds from PubChem BioAssay AID463173 (ICCB-Longwood Screening Facility, Harvard Medical School, 2010) can be followed below.

The campaign covered roughly 52,000 compounds. About 1,700 (3.3%) were called active. No stated cut-off is given here; in the data, active means survival mostly below about 52% (no sharp cut-off); inactive means mostly above about 56%. The list shows a part of the results.

The assay deals with Wild type. In words: growth inhibition of S. aureus wild type versus tarO mutant, primary screen, teichoic acid synthesis inhibitors, RN4220, OD600 (AID 463173). As to conditions: S. aureus RN4220 wild type/DeltatarO growth, OD600, 18 h, hits give low values, screened at 18.75 µg/mL (by protocol).
As to `COc1ccc(-n2ccn3c(CC(C)(C)CC(=O)O)nnc3c2=O)cc1`, the survival is inactive: 73%.
To `CCOc1ccc(NC(=O)c2cnn3c2NC(C)=C(C(=O)Nc2ccc(Cl)cc2)C3c2ccc(OC)c(OC)c2)cc1` (stereo not given) belongs inactive: 69%; to `Cc1ccc(-c2cnc(C3CC3)o2)cc1S(=O)(=O)Nc1ccc(F)cc1Cl`, inactive: 119%; to `CC(C)CNC(=O)C(=O)Nc1c2c(nn1-c1ccc(Cl)cc1)CSC2`, inactive: 129%.
In the case of `Cc1cccc(N2CCN(c3ccc4cc(S(=O)(=O)N5CCC(C)CC5)ccc4n3)CC2C)c1` (stereo not given) it was inactive: 129%; in that of `CC(=O)c1ccc(NC(=O)CSc2nccn2C2CCCC2)cc1`, inactive: 74%; in that of `CC(C)CC(=O)Nc1cccc(-c2cn3cccnc3n2)c1`, inactive: 72%.
Regarding `CCCn1c(=O)c2sccc2n2c(CCCC(=O)N3CCN(c4ccc(OC)cc4)CC3)nnc12`, the survival was inactive: 99%.
As for `CCOc1ccc(NC(=O)CSc2nc3ccccc3nc2N2CCOCC2)cc1`, the survival was inactive: 112%.
Take `COc1ccc(CNC(=O)c2cc3cccc4c3n2CC(C)S4)cc1` (stereo not given): the survival was inactive: 89%.
To `COc1ccc(S(=O)(=O)NC(C)(C)CO)cc1-c1nnc2c3ccccc3c(C)nn12` belongs inactive: 93%; to `O=c1c(N2CCN(c3ccc(F)cc3)CC2)csc2ccc(F)cc12`, inactive: 67%.
In the case of `Cc1nn(-c2cccc(Cl)c2)c2nc(-c3cccnc3)cc(C(F)(F)F)c12` it was inactive: 83%; in that of `CC1CCN(S(=O)(=O)c2ccc3nc(Nc4cccc(F)c4)ccc3c2)CC1`, inactive: 51%.
In the case of `CCOCCCNC(=O)CN1C(=O)COc2ccc(S(=O)(=O)N3CCOCC3)cc21` it was inactive: 100%; in that of `COc1ccc(-c2cc(C(F)(F)F)nc(SCCC(=O)Nc3ccc(F)cc3F)n2)cc1`, inactive: 76%.
For the compound `COc1ccc(CNC(=O)c2cc(-c3ccc(OC)c(OC)c3)nc3n[nH]c(-c4ccc(C)cc4)c23)cc1`, the survival was inactive: 74%.
Consider `CC(=O)c1ccc(NC(=O)CSc2nnc3c(n2)[nH]c2ccccc23)cc1`, for which the survival is inactive: 135%.
To `CCOC(=O)CN1CCC(n2nnc3cc(C(F)(F)F)ccc32)CC1` belongs inactive: 110%; to `O=C(Nc1ccc(F)cc1F)c1ccc(-n2cnc3cccnc32)cc1`, inactive: 73%; to `COc1ccc(N(C)C(=O)c2oc(=O)c3ccccc3c2-c2ccc(C)cc2)c(OC)c1`, inactive: 81%.
Turning to `CCOC(=O)C1CCCN(CCC(=O)Nc2ccc(Br)c(C)c2)C1` (stereo not given), the survival is inactive: 104%.
For `N#Cc1c(-n2ncnc2-c2ccccc2Cl)sc2c1CCCCC2`, the survival is inactive: 38%.
On to `COc1ccc(N2CCN(C(=O)CCCCn3c(=O)[nH]c4ccsc4c3=O)CC2)cc1`, for which the survival is inactive: 116%.
`Clc1ccc(-c2nc3ncccn3c2Nc2ccc3c(c2)OCCO3)cc1`: the survival was inactive: 82%.
Take `OCC#CCSc1nc2ccccc2s1`: the survival is inactive: 113%.
On to `CCOC(=O)c1ccc(N2C(=O)c3n[nH]c(-c4cccs4)c3C2c2cccc(O)c2)cc1` (stereo not given), for which the survival was inactive: 24%.
With `O=C(CCC1N=C2c3ccccc3N=C(SCc3ccc(F)cc3)N2C1=O)N1CCN(c2ccccc2)CC1` (stereo not given), the survival was inactive: 79%.
In the case of `Cc1cc(C)c(OCC(=O)N/N=C/c2ccc(O)cc2O)c(Br)c1` it was inactive: 122%.
As for `CCOC(=O)C1CCN(C(c2ccc(C)cc2)c2sc3nc(-c4ccco4)nn3c2O)CC1` (stereo not given), the survival was inactive: 72%.
Take `CCOc1ccc(/C=C(\C#N)C(=O)Nc2sc3c(c2C(=O)OC)CCC3)cc1OC`: the survival is inactive: 137%.
Regarding `CC(C)c1ccc(CNC(=O)c2ccc(N3CCCC3)c(NC(=O)NCc3ccc(F)cc3)c2)cc1`, the survival was inactive: 60%.
With `Cc1ccc(CNC(=O)CCc2c(C)c3cc4c(C)coc4cc3oc2=O)cc1`, the survival was inactive: 104%.
For `COC(=O)c1c(SCC(=O)Nc2ccccc2C(F)(F)F)[nH]c2ccc(Cl)cc2c1=O`, the survival was inactive: 73%.
For the compound `Cc1cccc(Nc2cc(C)nc3nc(-c4ccccc4)nn23)c1`, the survival was inactive: 109%.
As to `CCCNC(=O)c1ccc(Cn2c(SCC(N)=O)nc3ccccc3c2=O)cc1`, the survival was inactive: 81%.
In the case of `NCC(O)CN(c1ccccc1)c1ccccc1` (stereo not given) it was inactive: 97%; in that of `COc1ccc(OC)c(NC(=O)c2cc3cccc(OC)c3oc2=O)c1`, inactive: 80%.
To `COc1cccc(CNC(=O)Cn2ncn3c(cc4ccccc43)c2=O)c1` belongs inactive: 75%; to `Cc1nn(-c2ccccc2)c(OC(=O)c2ccc(Cl)cc2)c1S(=O)(=O)c1ccccc1`, inactive: 55%; to `Cc1ccc(-c2nc3cccc(C)n3c2Nc2ccc3c(c2)OCO3)o1`, inactive: 22%.
`CCOc1ccccc1C(=O)N1CCc2cc(OC)c(OC)cc2C1COc1ccc(OC)cc1` (stereo not given): the survival is inactive: 60%.
As to `Cc1cc(-c2ccccc2)nc2cc(C(N)=O)nn12`, the survival was inactive: 99%.
With `COc1ccc(CNS(=O)(=O)c2cc3c(cc2Cl)NC(=O)CO3)cc1`, the survival was inactive: 80%.
Regarding `CCC(=O)Oc1c(Sc2ccc(C)cc2)c(C)nn1-c1ccccc1`, the survival was inactive: 55%.
On to `CC(C)CC(=O)Nc1ccc2nc(SCC(=O)N3CCOCC3)sc2c1`, for which the survival was inactive: 108%.
As to `O=C(CSc1nc(=O)n(CCN2CCOCC2)c2c1CCC2)Nc1ccc(F)cc1F`, the survival is inactive: 146%.
On to `O=C(c1cc(-c2ccc(Br)cc2)n[nH]1)N1CCN(S(=O)(=O)c2ccc(Cl)s2)CC1`, for which the survival is inactive: 68%.
`CCNc1nc2c(c(=O)n(C)c(=O)n2C)n1CC`: the survival is inactive: 115%.
With `CCOC(=O)c1cc(-c2ccc(F)cc2)n(CCC(=O)Nc2cc(OC)cc(OC)c2)c1C`, the survival is inactive: 70%.
In the case of `CCN(CC)c1ccc(-n2nc3cc(C)c(NC(C)=O)cc3n2)cc1`, the survival is inactive: 108%.
Turning to `CCC(=O)Nc1nnc(SCCOC)s1`, the survival was inactive: 120%.
Turning to `Cn1c(=O)c2c(nc(N3CCOCC3)n2Cc2ccccc2F)n(C)c1=O`, the survival was inactive: 74%.
To `O=C(Nc1ccccc1C(F)(F)F)C1CCN(S(=O)(=O)c2ccccc2)CC1` belongs inactive: 72%.
In the case of `O=C(CSc1nc2ncccc2o1)Nc1ccc(Cl)cc1F`, the survival is inactive: 81%.
Take `COC(=O)CSc1nc2sc3c(c2c(=O)n1-c1ccccc1)C(C)CCC3` (stereo not given): the survival was inactive: 82%.
Turning to `CC(C)Oc1ccc(C(=O)Nc2nnc3n2CCS3)cc1`, the survival was inactive: 135%.
In the case of `COc1cc(C2c3c(-c4cc(C)ccc4O)n[nH]c3C(=O)N2Cc2ccco2)cc(OC)c1OC` (stereo not given), the survival is inactive: 73%.
For the compound `O=C(CSc1nc(O)cc(=O)[nH]1)Nc1ccccc1`, the survival was inactive: 102%.
For `CCCc1nn2c(=O)cc(COC(=O)c3cccc(NC(=O)c4ccc(OCC)cc4)c3)nc2s1`, the survival is active: -2%.
As for `O=C(Cn1cc(SCc2ccc(Cl)cc2)c2ccccc21)N1CCOCC1`, the survival was inactive: 79%.
As for `Cc1cc(Cl)ccc1NS(=O)(=O)c1c(C(=O)N2CCCCCC2)c(C)n(C)c1C`, the survival was inactive: 77%.
As to `COc1ccc(NC(=O)c2cc(S(=O)(=O)N3CCCC(C)C3)cn2C)c(OC)c1` (stereo not given), the survival was inactive: 68%.
To `COc1ccc(NC(=O)CSc2nc3ccccc3n2CC(=O)N(C)C2CCCCC2)cc1` belongs inactive: 134%.
With `Cc1c(Cl)cccc1NC(=O)CSc1nc(=O)[nH]c2c1CCC2`, the survival is inactive: 66%.
As to `O=S(=O)(c1cccc(Cl)c1)n1c(/C=C/c2ccccc2Cl)nc2ccccc21`, the survival was inactive: 54%.
`O=c1n(Cc2ccccc2)nc2n1-c1cc(Cl)ccc1OC2`: the survival is inactive: 63%.
For `Cc1c2cnn(-c3ccccc3)c(=O)c2c(C)n1CCCC(=O)Nc1cccc(F)c1`, the survival was inactive: 77%.
On to `Cc1ccc(-c2c3c(=O)n(C)c(=O)n(C)c3c3c(-c4cccc(C)c4)nc4ccccc4n23)cc1`, for which the survival was inactive: 78%.
For `COC(=O)c1ccccc1NC(=O)c1ccc2c(c1)CCN2S(=O)(=O)c1ccc(Cl)cc1`, the survival is inactive: 86%.
As to `Cc1ccc(C)c(Cn2c3ccccc3c3cnn(CC(=O)NC4CCCCCC4)c(=O)c32)c1`, the survival was inactive: 90%.
As for `COc1ccc(-c2cc(OC(=O)c3cccc(Cl)c3)c3c(C)oc(C)c3c(=O)c2)cc1OC`, the survival was inactive: 76%.
To `COc1ccc(CN(Cc2ccco2)C(=O)COc2ccccc2Cl)cc1` belongs inactive: 62%; to `N#Cc1nc(/C=C/c2ccc(F)cc2)oc1N1CCCCCC1`, inactive: 69%.
`CC(NS(=O)(=O)c1ccc2c(c1)CCN2C(=O)CCCC(=O)O)c1ccccc1` (stereo not given): the survival is inactive: 87%.
Consider `Cc1ccccc1NC(=O)CSc1nc(-c2cccs2)nc2cc(=O)[nH]n12`, for which the survival was inactive: 78%.
In the case of `COc1ccc(-n2nc(C(=O)Nc3cc(C)c(Cl)cc3OC)c3c4ccccc4n(C)c3c2=O)cc1`, the survival is inactive: 78%.
In the case of `COc1cc(OC)cc(C(=O)N2CCN(C(=O)COc3ccc(C)cc3)CC2)c1` it was inactive: 74%; in that of `COc1cccc(-n2c(SCC(=O)Nc3ccc4c(c3)OCO4)nc3c([nH]c4ccccc43)c2=O)c1`, inactive: 87%; in that of `CCN(CC)c1ccc(NC(=O)Cn2nc3c(cc2=O)CCCC3)c(C)c1`, inactive: 81%.
As to `CCc1c(C)sc(NC(=O)c2cc3nc(-c4ccc(OC)cc4)cc(C(F)(F)F)n3n2)c1C(=O)OC`, the survival was inactive: 94%.
In the case of `CC1=C(C(=O)Nc2ccccc2)C(c2ccc(Br)cc2)n2nc(CCCO)nc2N1` (stereo not given) it was inactive: 79%.
On to `COc1ccc(-n2ncc3c2ncn2nc(-c4ccc(OC)c(OC)c4)nc32)cc1`, for which the survival was inactive: 87%.
For the compound `CCCCN(CCCC)CCCNC(=O)c1cc(-c2ccc(Cl)s2)nc2ccccc12`, the survival was inactive: 52%.
Regarding `CC(C)c1ccc(C2CC(=O)N3CN(C4CCCCC4)CSC3=C2C#N)cc1` (stereo not given), the survival was inactive: 68%.
On to `CCc1nc2ccccc2n1CC(C)C(=O)O` (stereo not given), for which the survival was inactive: 108%.
For `Cn1ccc2cc(S(=O)(=O)N3CCCC(C(=O)NCc4ccccc4F)C3)ccc21` (stereo not given), the survival was inactive: 90%.
In the case of `CN(C)c1ccc(NC(=O)CSc2nc(N)cc(=O)[nH]2)cc1` it was inactive: 118%.
In the case of `Cc1ccccc1-c1nc(CNC(=O)NC2CCCCC2)c(C)o1`, the survival is inactive: 73%.
In the case of `COc1ccccc1N1CCN(C(=O)c2nn(C)c3c2CS(=O)(=O)c2ccccc2-3)CC1` it was inactive: 83%.
